{"source": "PubChem BioAssay AID1347165", "about": "(National Center for Advancing Translational Sciences (NCATS), 2019)", "note": "Among all 220,000 compounds or so, about 5,700 (2.6%) were called active. Inconclusive means that the source gave no clear call. Such entries were picked first, then a sample of the others. Calls come from the whole dose curve; as a rule, active = well fitted inhibition curve with a large enough effect; inconclusive = small, poorly fitted or top-dose-only effect; inactive = no such curve, though single readings can be large or run the other way. Potencies beside an inconclusive call are fits to weak or partial responses and may not hold up. Potency is the fitted concentration of half-maximal effect; tags give direction and shape of the fitted curve.", "data": [{"molecular_target": "Lysine-specific demethylase 5B (Homo sapiens) (UniProt Q9UGL1)", "sequence (Q9UGL1 whole entry, looked up)": "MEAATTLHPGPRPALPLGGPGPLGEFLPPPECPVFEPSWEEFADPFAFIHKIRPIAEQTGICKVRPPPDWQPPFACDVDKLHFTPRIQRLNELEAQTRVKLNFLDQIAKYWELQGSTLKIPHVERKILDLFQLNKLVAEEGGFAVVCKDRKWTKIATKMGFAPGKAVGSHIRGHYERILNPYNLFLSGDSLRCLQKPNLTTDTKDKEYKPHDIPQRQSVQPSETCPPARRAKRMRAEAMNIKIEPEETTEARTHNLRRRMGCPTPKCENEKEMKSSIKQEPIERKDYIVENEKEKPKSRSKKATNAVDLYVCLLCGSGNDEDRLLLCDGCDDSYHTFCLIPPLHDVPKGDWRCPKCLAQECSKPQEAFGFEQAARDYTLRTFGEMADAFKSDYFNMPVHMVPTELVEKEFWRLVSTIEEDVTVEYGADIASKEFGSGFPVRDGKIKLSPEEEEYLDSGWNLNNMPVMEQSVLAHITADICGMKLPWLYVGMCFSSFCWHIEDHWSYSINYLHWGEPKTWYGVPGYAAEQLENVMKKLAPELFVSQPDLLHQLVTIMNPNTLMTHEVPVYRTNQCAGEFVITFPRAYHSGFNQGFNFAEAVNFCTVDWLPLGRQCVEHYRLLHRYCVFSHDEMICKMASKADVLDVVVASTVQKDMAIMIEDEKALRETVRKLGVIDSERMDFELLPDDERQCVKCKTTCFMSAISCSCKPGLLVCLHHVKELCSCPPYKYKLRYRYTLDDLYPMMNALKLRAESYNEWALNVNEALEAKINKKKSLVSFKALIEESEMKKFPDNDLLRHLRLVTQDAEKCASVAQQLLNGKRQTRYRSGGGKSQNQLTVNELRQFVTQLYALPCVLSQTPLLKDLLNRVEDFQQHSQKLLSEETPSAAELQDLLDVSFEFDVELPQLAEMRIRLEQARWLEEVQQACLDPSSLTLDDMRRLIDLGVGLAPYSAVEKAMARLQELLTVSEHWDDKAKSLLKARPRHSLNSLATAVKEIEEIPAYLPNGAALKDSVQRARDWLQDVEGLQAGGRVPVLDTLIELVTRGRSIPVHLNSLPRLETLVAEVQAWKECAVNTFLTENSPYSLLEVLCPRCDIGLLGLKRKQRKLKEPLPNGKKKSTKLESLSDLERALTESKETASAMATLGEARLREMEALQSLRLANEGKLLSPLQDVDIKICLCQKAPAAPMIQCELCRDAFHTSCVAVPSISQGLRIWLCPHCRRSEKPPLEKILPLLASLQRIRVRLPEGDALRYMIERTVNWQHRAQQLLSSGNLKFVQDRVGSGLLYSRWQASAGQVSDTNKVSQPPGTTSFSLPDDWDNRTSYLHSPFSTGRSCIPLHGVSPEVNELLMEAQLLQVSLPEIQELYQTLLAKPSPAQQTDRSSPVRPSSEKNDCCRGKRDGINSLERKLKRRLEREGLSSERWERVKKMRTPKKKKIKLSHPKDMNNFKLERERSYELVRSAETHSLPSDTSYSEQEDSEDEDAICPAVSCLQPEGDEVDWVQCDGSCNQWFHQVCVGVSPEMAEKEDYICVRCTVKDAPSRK", "test": "Primary screen for KDM5B Histone Demethylases FDH-coupled qHTS; note: nearly all actives have a fitted effect of over 70% in size; for activity change, negative = inhibition: 0% is about no effect", "details": "FDH-coupled NADH fluorescence (FDH is formaldehyde dehydrogenase); activity change, negative = inhibition: at 57.7 µM (top of the series) unless noted", "summary_of_the_method": "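Here, H3K4me3 peptide (12.5 µM in substrate mix) is demethylated by KDM5BΔAP, 200 nM final, after 10 min compound exposure. Formaldehyde product is coupled through FDH (0.25 U/mL in mix) to NADH fluorescence; 30-min ΔRFU feeds dose-response curves.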", "values": [{"smiles": "NC(=O)c1ccc(NC(=O)Cn2cnc3ccc(Cl)cc3c2=O)cc1", "Potency": "inactive"}, {"smiles": "CCN1C(=O)Cc2ccccc2C1C(=O)NCc1ccccc1Br", "note": "(stereo not given)", "Potency": "inconclusive: 15.8 µM [inhibitor, partial curve, poor fit]"}, {"smiles": "Cc1cc(CSCC(=O)Nc2ccccc2C)on1", "Potency": "inactive"}, {"smiles": "CC(=O)Nc1cccc(-c2csc(Nc3cccc(O)c3)n2)c1", "Potency": "inconclusive: 15.8 µM [inhibitor, partial curve, poor fit]"}, {"smiles": "O=C(c1c(F)cccc1F)N1CCCC2(C1)NC(=O)N(Cc1cccc(Cl)c1)C2=O", "note": "(stereo not given)", "Potency": "inactive"}, {"smiles": "CSCCCNC(=O)c1ccc(OC2CCN(C(=O)c3cccnc3)CC2)cc1", "Potency": "inconclusive: 20 µM [inhibitor, partial curve, poor fit]"}, {"smiles": "CN1[C@@H](CCC(=O)NCc2ccc(F)cc2)CNC(=O)[C@@H]2[C@H]1CCN2Cc1nc2ccccc2n1C", "Potency": "inconclusive: 17.8 µM [inhibitor, single point]"}, {"smiles": "CC(C)c1ccc(C2Sc3ccccc3NC3=C2C(=O)c2ccccc23)cc1", "note": "(stereo not given)", "Potency": "inconclusive: 22.4 µM [inhibitor, single point]"}, {"smiles": "COC(=O)c1cc(NC(=O)CCc2c(C)nc3c(c(C)nn3C(C)(C)C)c2C)cc(C(=O)OC)c1", "Potency": "inconclusive: 1.41 µM [inhibitor, full curve, poor fit]"}, {"smiles": "COc1ccc(Nc2oc(-c3ccc(COc4cccc(C)c4)o3)nc2C#N)cc1", "Potency": "inconclusive: 5.62 µM [inhibitor, partial curve, poor fit]"}, {"smiles": "O=C(NC[C@H]1O[C@@H](CC(=O)N2CCN(c3ccccn3)CC2)[C@H](O)[C@@H]1O)c1ccco1", "Potency": "inconclusive: 39.8 µM [inhibitor, single point]"}, {"smiles": "O=C(C1CC1)N1C[C@@H]2OCC(=O)N(Cc3ccccc3)[C@@H]2C1", "Potency": "inactive"}, {"smiles": "O=C(CNC(=O)c1ccc(Cl)cc1)OCc1cc(=O)n2nc(C3CC3)sc2n1", "Potency": "inactive"}, {"smiles": "CCCCNC(=S)N/N=C(/C)c1ccccn1", "Potency": "inconclusive: 39.8 µM [inhibitor, single point]"}, {"smiles": "CCOC(=O)c1ccc(NC(=O)CSc2nnc(-c3cccc(Cl)c3)n2Cc2ccco2)cc1", "Potency": "inconclusive: 25.1 µM [inhibitor, single point]"}, {"smiles": "Cc1cn(C)c(CC(=O)NCc2cccc(Cl)c2)c1C(=O)O", "Potency": "inconclusive: 28.2 µM [inhibitor, partial curve, poor fit]"}, {"smiles": "O=C(NCCc1ccccn1)c1ccc(OC2CCN(Cc3ccccn3)CC2)cc1", "Potency": "inconclusive: 28.2 µM [inhibitor, single point]"}, {"smiles": "COc1cc(Cn2c(=O)oc3ccc(C)cc32)ccc1OCCC(C)C", "activity change, negative = inhibition": "inconclusive: -36.2% [inhibitor]"}, {"smiles": "O=C1Nc2ccccc2CN(Cc2ccc(C(F)(F)F)cc2)C12CCNCC2", "Potency": "active: 50.1 µM"}, {"smiles": "CC(C)(C)c1ccc(CSC2=Nc3ccccc3C3=NC(CC(=O)NCc4cccs4)C(=O)N23)cc1", "note": "(stereo not given)", "Potency": "inconclusive: 15.8 µM [inhibitor, partial curve, poor fit]"}, {"smiles": "CCCNC(=O)c1cc2c(=O)[nH]c(-c3ccccc3)cn2n1", "Potency": "active: 25.1 µM"}, {"smiles": "COc1ccc(-c2csc(N3N=C(C)CC3c3cccc(OC)c3OC)n2)cc1", "note": "(stereo not given)", "Potency": "inconclusive: 31.6 µM [inhibitor, partial curve, poor fit]"}, {"smiles": "O=C1NC(=O)c2cc3ccccc3cc21", "Potency": "inconclusive: 25.1 µM [inhibitor, partial curve, poor fit]"}, {"smiles": "CC(=O)N1C[C@@H]2CCCN3CCC[C@@H]([C@H]23)[C@H]1CCCC(=O)NCCCN1CCCCC1", "Potency": "active: 25.1 µM"}, {"smiles": "O=C(N[C@H](C1CCNCC1)C1CC(O)C1)c1ccc2nccnc2c1", "note": "(stereo not given in full)", "Potency": "inconclusive: 35.5 µM [inhibitor, single point]"}, {"smiles": "COc1ccc(CN(C)C(=O)CSc2nc(-c3cccs3)nc3ccccc23)c(OC)c1OC", "Potency": "inconclusive: 25.1 µM [inhibitor, single point]"}, {"smiles": "CC(C)N(Cc1ccccc1)C(=O)COC(=O)c1nn(-c2ccccc2)c(=O)c2ccccc12", "Potency": "inactive"}, {"smiles": "CCN1CCN(c2ncc3c(n2)CCN(Cc2cc(Br)cs2)C3)CC1", "Potency": "inconclusive: 22.4 µM [inhibitor, partial curve, poor fit]"}, {"smiles": "Cc1ccc(NC(=O)Cn2ccn3nc4c(c3c2=O)CCCCC4)cc1", "Potency": "inconclusive: 28.2 µM [inhibitor, partial curve, poor fit]"}, {"smiles": "O=S1(=O)C=C(Sc2nnc(-c3cccnc3)o2)c2ccccc21", "Potency": "inconclusive: 3.55 µM [inhibitor, full curve, poor fit]"}, {"smiles": "N#Cc1cccc(-c2cn3c(n2)N(C(=O)c2ccoc2)CCC3)c1", "Potency": "active: 25.1 µM"}, {"smiles": "CN1C(=O)Cc2cc(C(=O)N3C[C@@H](CO)[C@H](c4ccccn4)C3)ccc21", "Potency": "inactive"}, {"smiles": "Cc1nn(C)c2c1c(C(F)(F)F)cc(=O)n2CC(=O)NCc1ccc(OC(C)C)cc1", "Potency": "inconclusive: 2.82 µM [inhibitor, partial curve, poor fit]"}, {"smiles": "O=C1Nc2ccc(-c3cccc(C(F)(F)F)c3)cc2C(=O)N2CCN(C(=O)[C@@H]3CSCN3)C[C@H]12", "Potency": "inconclusive: 39.8 µM [inhibitor, single point]"}, {"smiles": "CC(NC(=O)c1nn(C)c(=O)c2ccccc12)c1ccc(Cl)cc1", "note": "(stereo not given)", "Potency": "inactive"}, {"smiles": "Cc1ccc(C(=O)C(Sc2ccc3c(c2)OCCO3)c2ccc(C)cc2)cc1", "note": "(stereo not given)", "Potency": "inconclusive: 31.6 µM [inhibitor, partial curve, poor fit]"}, {"smiles": "COc1ccc2c(c1)CCc1c-2n[nH]c1C(=O)N1CCc2c(nc3cc(-c4ccccc4)[nH]n3c2=O)C1", "Potency": "active: 15.8 µM"}, {"smiles": "C[C@H](C(=O)N1Cc2ccccc2CC2(CCN(Cc3ccncc3)CC2)C1)c1ccccc1", "Potency": "inconclusive: 50.1 µM [inhibitor, partial curve]"}, {"smiles": "O=C(Nc1ccc(Cl)c(S(=O)(=O)N2CCCC2)c1)c1n[nH]c2ccccc12", "Potency": "inconclusive: 31.6 µM [inhibitor, partial curve, poor fit]"}, {"smiles": "CN(C)C[C@@H]1CN(C2CCOCC2)C[C@H]1NC(=O)Cc1ccccc1Cl", "Potency": "inconclusive: 39.8 µM [inhibitor, single point]"}]}]}
